# According to the supplement of paper PMC11166567:
# The other results are listed elsewhere or left out.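 Rule for the calls: active = permutation test q below 0.05 after Benjamini-Hochberg correction; inactive = q of 0.05 or more.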
# Test system: U2OS
# Assay: mean average precision of replicate retrieval against DMSO controls (Cell Painting phenotypic activity) (fraction (0-1)); higher = stronger, more reproducible morphological phenotype distinct from DMSO; extreme values may be limits of the assay
# Details: 24 h; 5 µM
# 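Note: cosine similarity of well-level aggregated Cell Painting profiles ranks each compound's replicate wells against DMSO wells, four replicate plates, significance from 100,000 rank shuffles.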
row,SMILES,mean average precision
1,CN1C(=O)N(c2cc(Cl)cc(Cl)c2)C(=O)[C@]12CN(Cc1cc(C(=O)O)cs1)C[C@H]2c1ccc(C#N)cc1,inactive: 0.256
2,CCCCOc1ccc(CC(=O)NO)cc1,active: 0.841
3,CCCCC(C)(O)C/C=C/[C@H]1[C@H](O)CC(=O)[C@@H]1CCCCCCC(=O)OC (stereo not given in full),active: 0.714
4,CC(=O)c1ccc(S(=O)(=O)NC(=O)NC2CCCCC2)cc1,inactive: 0.294
5,N#Cc1ccc(-c2ccc(S(=O)(=O)Nc3cccc(N)n3)cc2)cc1,active: 0.652
6,CC[C@H](C)[C@@H]1NC(=O)[C@H](Cc2ccc(O)cc2)NC(=O)[C@@H](N)CSSC[C@@H](C(=O)N2CCC[C@H]2C(=O)N[C@@H](CC(C)C)C(=O)NCC(N)=O)NC(=O)[C@H](CC(N)=O)NC(=O)[C@H](CCC(N)=O)NC1=O,inactive: 0.131
7,Cc1ccc(Cl)c(Nc2ccccc2C(=O)O)c1Cl,inactive: 0.193
8,O=C(/C=C/c1cccnc1)NCCCCC1CCN(C(=O)c2ccccc2)CC1,active: 0.971
9,CN(C(=O)c1ccc(F)cc1C(F)(F)F)C1CCN(c2nnc(-c3ccnn3C)c3ccccc23)CC1,inactive: 0.197
10,O=C(O)[C@@H]1CCCN1,active: 0.528
11,OC[C@H]1O[C@@H](n2cnc3c2NC=NC[C@H]3O)C[C@@H]1O,active: 0.933
12,CCN1/C(=C/C(C)=O)Sc2ccc(OC)cc21,active: 0.402
13,COc1cc2c(Oc3ccc4[nH]c(C)cc4c3F)ncnc2cc1OCCCN1CCCC1,active: 1
14,NC(N)=NC(=O)c1nc(Cl)c(N)nc1N,active: 0.428
15,Cc1ccc(-c2nn(C(C)(C)C)c3ncnc(N)c23)cc1,active: 1
16,COc1ccc(/C=C/C(=O)Nc2ccccc2C(=O)O)cc1OC,active: 0.967
17,Cc1cc(C)cc(C(=O)N(C)[C@H](Cc2ccc(-c3ccccc3)cc2)C(=O)N[C@@H](Cc2c[nH]c3ccccc23)C(=O)O)c1,inactive: 0.238
18,O=C(O)/C=C/c1ccc(Cn2ccnc2)cc1,active: 0.348

row,SMILES,mean average precision
1,COc1ccccc1S(=O)(=O)Nc1ccc2c(c1)CN(C)C(=O)N2,inactive: 0.298
2,N=C(N)c1ccc2cc(OC(=O)c3ccc(N=C(N)N)cc3)ccc2c1,active: 0.553
3,CCC[C@H](Nc1nc(-c2ccc(NC(=O)NCC)c(OC)c2)ncc1C)c1cccnc1,active: 1
4,CCOC(=O)C(C)=O,inactive: 0.208
5,C=C[C@H]1CN2CC[C@H]1C[C@@H]2[C@@H](O)c1ccnc2ccc(OC)cc12,inactive: 0.219
6,CC(C)Oc1ccc(-c2nc(-c3cccc4c3CC[C@@H]4NCCO)no2)cc1C#N,inactive: 0.367
7,CCOC(=O)[C@H](Cc1ccccc1)NC(=O)c1cc(Cl)c(OCCN2CCN(C)CC2)c(Cl)c1O,active: 0.788
8,Cc1cc(-c2ncc(CC(=O)Nc3ccc(-c4cnccn4)cn3)cc2C)ccn1,inactive: 0.142
9,CN(C)CC/C=C1/c2ccccc2COc2ccc(CC(=O)O)cc21,active: 0.509
10,CC(C)[C@H](CO)Nc1nc(Nc2cc(N)cc(Cl)c2)c2ncn(C(C)C)c2n1,active: 1
11,Cc1noc(-c2ccc(CSCCC(=O)O)cc2)c1NC(=O)OC(C)c1ccccc1Cl (stereo not given),active: 0.51
12,CO[C@@H](C(=O)N1Cc2[nH]nc(NC(=O)c3ccc(N4CCN(C)CC4)cc3)c2C1)c1ccccc1,active: 0.778
13,Nc1cc(F)ccc1NC(=O)/C=C/c1cnn(C/C=C/c2ccccc2)c1,active: 1
14,CCOC(=O)[C@H]1O[C@@H]1C(=O)N[C@@H](CC(C)C)C(=O)NCCC(C)C,active: 1
15,CC(C)[C@H](CO)Nc1nc(Nc2cccc(Cl)c2)c2ncn(C(C)C)c2n1,active: 1
16,O=c1n(CCCN2CCN(c3cccc(Cl)c3)CC2)nc2ccccn12,inactive: 0.069
17,O=C(O)c1cc(N=Nc2ccc(S(=O)(=O)Nc3ccccn3)cc2)ccc1O,inactive: 0.0759

# Same assay, conditions: 48 h; 5 µM
row,SMILES,mean average precision
1,CN1C(=O)N(c2cc(Cl)cc(Cl)c2)C(=O)[C@]12CN(Cc1cc(C(=O)O)cs1)C[C@H]2c1ccc(C#N)cc1,inactive: 0.154
2,CCCCOc1ccc(CC(=O)NO)cc1,active: 0.381
3,CCCCC(C)(O)C/C=C/[C@H]1[C@H](O)CC(=O)[C@@H]1CCCCCCC(=O)OC (stereo not given in full),active: 0.979
4,CC(=O)c1ccc(S(=O)(=O)NC(=O)NC2CCCCC2)cc1,active: 0.605
5,N#Cc1ccc(-c2ccc(S(=O)(=O)Nc3cccc(N)n3)cc2)cc1,inactive: 0.246
6,CC[C@H](C)[C@@H]1NC(=O)[C@H](Cc2ccc(O)cc2)NC(=O)[C@@H](N)CSSC[C@@H](C(=O)N2CCC[C@H]2C(=O)N[C@@H](CC(C)C)C(=O)NCC(N)=O)NC(=O)[C@H](CC(N)=O)NC(=O)[C@H](CCC(N)=O)NC1=O,inactive: 0.131
7,Cc1ccc(Cl)c(Nc2ccccc2C(=O)O)c1Cl,inactive: 0.238
8,O=C(/C=C/c1cccnc1)NCCCCC1CCN(C(=O)c2ccccc2)CC1,active: 1
9,CN(C(=O)c1ccc(F)cc1C(F)(F)F)C1CCN(c2nnc(-c3ccnn3C)c3ccccc23)CC1,inactive: 0.115
10,O=C(O)[C@@H]1CCCN1,inactive: 0.294
11,OC[C@H]1O[C@@H](n2cnc3c2NC=NC[C@H]3O)C[C@@H]1O,active: 0.813
12,CCN1/C(=C/C(C)=O)Sc2ccc(OC)cc21,inactive: 0.205
13,COc1cc2c(Oc3ccc4[nH]c(C)cc4c3F)ncnc2cc1OCCCN1CCCC1,active: 1
14,NC(N)=NC(=O)c1nc(Cl)c(N)nc1N,active: 0.431
15,Cc1ccc(-c2nn(C(C)(C)C)c3ncnc(N)c23)cc1,active: 1
16,COc1ccc(/C=C/C(=O)Nc2ccccc2C(=O)O)cc1OC,inactive: 0.2
17,Cc1cc(C)cc(C(=O)N(C)[C@H](Cc2ccc(-c3ccccc3)cc2)C(=O)N[C@@H](Cc2c[nH]c3ccccc23)C(=O)O)c1,inactive: 0.063
18,O=C(O)/C=C/c1ccc(Cn2ccnc2)cc1,inactive: 0.289

row,SMILES,mean average precision
1,COc1ccccc1S(=O)(=O)Nc1ccc2c(c1)CN(C)C(=O)N2,active: 0.521
2,N=C(N)c1ccc2cc(OC(=O)c3ccc(N=C(N)N)cc3)ccc2c1,active: 0.649
3,CCC[C@H](Nc1nc(-c2ccc(NC(=O)NCC)c(OC)c2)ncc1C)c1cccnc1,active: 0.913
4,CCOC(=O)C(C)=O,inactive: 0.102
5,C=C[C@H]1CN2CC[C@H]1C[C@@H]2[C@@H](O)c1ccnc2ccc(OC)cc12,active: 0.951
6,CC(C)Oc1ccc(-c2nc(-c3cccc4c3CC[C@@H]4NCCO)no2)cc1C#N,inactive: 0.265
7,CCOC(=O)[C@H](Cc1ccccc1)NC(=O)c1cc(Cl)c(OCCN2CCN(C)CC2)c(Cl)c1O,active: 1
8,Cc1cc(-c2ncc(CC(=O)Nc3ccc(-c4cnccn4)cn3)cc2C)ccn1,inactive: 0.0907
9,CN(C)CC/C=C1/c2ccccc2COc2ccc(CC(=O)O)cc21,inactive: 0.111
10,CC(C)[C@H](CO)Nc1nc(Nc2cc(N)cc(Cl)c2)c2ncn(C(C)C)c2n1,active: 0.715
11,Cc1noc(-c2ccc(CSCCC(=O)O)cc2)c1NC(=O)OC(C)c1ccccc1Cl (stereo not given),active: 0.561
12,CO[C@@H](C(=O)N1Cc2[nH]nc(NC(=O)c3ccc(N4CCN(C)CC4)cc3)c2C1)c1ccccc1,active: 0.911
13,Nc1cc(F)ccc1NC(=O)/C=C/c1cnn(C/C=C/c2ccccc2)c1,active: 1
14,CCOC(=O)[C@H]1O[C@@H]1C(=O)N[C@@H](CC(C)C)C(=O)NCCC(C)C,active: 1
15,CC(C)[C@H](CO)Nc1nc(Nc2cccc(Cl)c2)c2ncn(C(C)C)c2n1,active: 1
16,O=c1n(CCCN2CCN(c3cccc(Cl)c3)CC2)nc2ccccn12,inactive: 0.0843
17,O=C(O)c1cc(N=Nc2ccc(S(=O)(=O)Nc3ccccn3)cc2)ccc1O,active: 0.447
